Laboratory results published in PubChem BioAssay AID504332 (National Center for Advancing Translational Sciences (NCATS), 2011).
Several values for one entry are separate records, joined by “and”; a condition that tells them apart may be missing. Equal entries are not always repeated. Among all 350,000 compounds or so, about 31,000 (8.9%) were called active. Inconclusive results, whose numbers are uncertain, are shown with a selection of clear calls. The call rests on the fitted dose curve; in most records, active means well fitted inhibition curve with a large enough effect; inconclusive means small, poorly fitted or top-dose-only effect; inactive means no such curve, though single readings can be large or run the other way. Potencies beside an inconclusive call are fits to weak or partial responses and may not hold up. Some structures have more than one record in an assay (separate samples or runs), and their calls can disagree.

Target: Histone-lysine N-methyltransferase EHMT2 (Homo sapiens) (UniProt Q96KQ7)
Assay: qHTS Assay for Inhibitors of Histone Lysine Methyltransferase G9a; further: nearly all actives have a fitted effect of over 75% in size
Settings: G9a H3K9 monomethylation, AlphaScreen, 2 h; activity, negative = inhibition: at 59 µM (top of the series) unless noted
Method in brief: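 Compounds were preincubated with 20 nM G9a for 15 min, after which biotinylated H3K9 peptide (500 nM) and SAM (20 uM) started a 2 h room-temperature reaction. Monomethylated product was quantified by antibody-based AlphaScreen chemiluminescence.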
On the % scale 0 is the no-effect control and ±100 the full control effect; potency means the concentration at half of the fitted maximal effect; tags describe the fitted curve by direction and shape.

Chain of UniProt Q96KQ7 (Q96KQ7 whole entry, looked up): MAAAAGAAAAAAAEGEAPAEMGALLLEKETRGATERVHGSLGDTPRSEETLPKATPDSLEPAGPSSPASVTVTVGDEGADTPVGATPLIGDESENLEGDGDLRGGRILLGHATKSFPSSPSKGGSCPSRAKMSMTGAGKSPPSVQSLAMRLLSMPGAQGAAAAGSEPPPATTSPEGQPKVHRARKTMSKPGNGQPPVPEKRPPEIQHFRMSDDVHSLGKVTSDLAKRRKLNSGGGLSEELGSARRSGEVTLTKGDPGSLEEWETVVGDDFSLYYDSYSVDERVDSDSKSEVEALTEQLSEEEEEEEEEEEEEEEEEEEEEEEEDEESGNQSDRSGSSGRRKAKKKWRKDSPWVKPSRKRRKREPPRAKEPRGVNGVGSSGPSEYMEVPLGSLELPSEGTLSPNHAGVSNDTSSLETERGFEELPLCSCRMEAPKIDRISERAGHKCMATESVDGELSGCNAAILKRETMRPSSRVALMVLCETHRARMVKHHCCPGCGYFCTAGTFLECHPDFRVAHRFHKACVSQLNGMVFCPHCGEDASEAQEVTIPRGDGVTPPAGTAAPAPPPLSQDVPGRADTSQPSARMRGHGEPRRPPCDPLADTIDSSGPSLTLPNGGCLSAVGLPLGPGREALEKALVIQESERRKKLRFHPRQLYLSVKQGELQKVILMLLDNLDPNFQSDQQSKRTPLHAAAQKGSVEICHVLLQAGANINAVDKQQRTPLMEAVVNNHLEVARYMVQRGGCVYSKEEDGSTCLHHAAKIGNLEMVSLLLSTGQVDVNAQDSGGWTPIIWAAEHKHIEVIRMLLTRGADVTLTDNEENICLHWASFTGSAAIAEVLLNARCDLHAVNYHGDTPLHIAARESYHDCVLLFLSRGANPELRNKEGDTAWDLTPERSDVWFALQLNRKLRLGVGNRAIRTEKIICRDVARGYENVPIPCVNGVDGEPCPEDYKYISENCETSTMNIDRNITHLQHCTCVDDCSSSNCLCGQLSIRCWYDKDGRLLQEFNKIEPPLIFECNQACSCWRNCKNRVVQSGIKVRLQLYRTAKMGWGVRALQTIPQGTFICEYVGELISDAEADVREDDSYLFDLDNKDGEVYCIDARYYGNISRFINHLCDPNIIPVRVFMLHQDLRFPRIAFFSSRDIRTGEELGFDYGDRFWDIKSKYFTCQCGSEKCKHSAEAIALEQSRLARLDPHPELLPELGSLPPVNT

**Q.** With `O=C(CCc1nc(-c2ccccc2)no1)NCc1cccnc1` as the compound, how does the Potency read?
**A.** inconclusive: 7.08 µM [inhibitor, single point]

**Q.** `CCC(C)c1ccccc1OCCCN(C)Cc1ccccc1` (stereo unspecified) was tested. Which Potency did it give?
**A.** active: 11.2 µM

**Q.** Which Potency does the source give for `CCOc1ccc(C(=O)NC(=S)Nc2ccc(N3CCC(C)CC3)cc2)cc1[N+](=O)[O-]` here?
**A.** active: 10 µM

**Q.** `O=C(O)Cc1sc(NCCc2ccccc2)nc1-c1ccc(F)cc1` was tested. Which Potency did it give?
**A.** inconclusive: 89.1 µM [inhibitor, single point]

**Q.** How did the “activity, negative = inhibition” value turn out when `CCOc1ccc(C(NC(=O)c2cc(OC)c(OC)c(OC)c2)c2cc(Cl)c3cccnc3c2O)cc1` (stereo unspecified) was run?
**A.** inactive: 32.7%

**Q.** With `COc1ccc2[nH]cc(CCNc3ncncc3-c3ccc4c(c3)OCO4)c2c1` as the compound, how does the activity, negative = inhibition read?
**A.** inactive: 5.86% [at 0.501 µM]

**Q.** Which “activity, negative = inhibition” value does the source give for `CC(C)Oc1cccc(C(=O)Nc2ccc3oc(-c4ccccc4)nc3c2)c1` here?
**A.** inactive: -2.73%

**Q.** For `COc1ccccc1N1C(=S)N=C(Nc2c(C)cccc2C)C12CCCC2`, which “activity, negative = inhibition” value is on record?
**A.** inactive: 9.84% [at 102 µM]

**Q.** Which Potency does the source give for `CC(=O)Nc1cccc(C2=CC(c3ccco3)n3ncnc3N2)c1` (stereo unspecified) here?
**A.** inconclusive: 10 µM [inhibitor, full curve, poor fit]

**Q.** With `Cc1ccc([C@@H]2C[C@H]3CN(Cc4cccc(Cl)c4)C(=O)[C@]34CCCN24)o1` as the compound, how does the Potency read?
**A.** inconclusive: 79.4 µM [inhibitor, single point]

**Q.** Which “activity, negative = inhibition” value does the source give for `Cc1nc2nc(C)c(CCC(=O)NCCc3ccccc3)c(C)n2n1` here?
**A.** inactive: -2.2%

**Q.** How did the “activity, negative = inhibition” value turn out when `Cc1ccsc1C(=O)c1sccc1C` was run?
**A.** inactive: 48.8%

**Q.** Which Potency does the source give for `COc1ccc(CNc2nc3ccccc3n2Cc2ccc(Cl)cc2)cc1OC` here?
**A.** inconclusive: 89.1 µM [inhibitor, single point]

**Q.** With `CN(CC(=O)NCc1ccncc1)S(=O)(=O)c1ccc2ccccc2c1` as the compound, how does the “activity, negative = inhibition” value read?
**A.** inactive: -1.41% [at 102 µM]

**Q.** `O=C(CSc1nnnn1-c1ccc2c(c1)CCC2)NCc1cccs1` was tested. Which activity, negative = inhibition did it give?
**A.** inconclusive: -74.9% [inhibitor]

**Q.** For `O=C(Nc1cccc(S(=O)(=O)N2CCOCC2)c1)c1ccc2ccccc2n1`, which activity, negative = inhibition is on record?
**A.** inactive: -14% [at 12.7 µM]

**Q.** How did the Potency turn out when `Cc1ccc(O)c([C@H](CCN(C(C)C)C(C)C)c2ccccc2)c1` was run?
**A.** inactive

**Q.** Which Potency does the source give for `COC(=O)c1cc2oc3ccccc3c2n1CC(=O)Nc1ccc(N(C)C)cc1` here?
**A.** inconclusive: 28.2 µM [inhibitor, partial curve, poor fit]

**Q.** For `Cc1ccc(S(=O)(=O)N2CCCCC2C(=O)N2CCN(C)CC2)cc1` (stereo unspecified), which Potency is on record?
**A.** inconclusive: 7.08 µM [inhibitor, single point]

**Q.** For `CC(C)(C)NC(=O)NC(=O)CN1CCCCCCC1`, which Potency is on record?
**A.** inconclusive: 50.1 µM [inhibitor, partial curve, poor fit]

**Q.** Which Potency does the source give for `Cc1ccccc1C(=O)NC(=S)Nc1ncccn1` here?
**A.** inconclusive: 44.7 µM [inhibitor, partial curve, poor fit]

**Q.** How did the “activity, negative = inhibition” value turn out when `O=C(NC(=O)N1CCOCC1)c1ccccc1` was run?
**A.** inactive: -4.57%

**Q.** `CCn1ccnc1CN(C)C(=O)c1cc(COc2ccc(Cl)cc2OC)on1` was tested. Which Potency did it give?
**A.** inconclusive: 79.4 µM [inhibitor, single point]

**Q.** For `CC(=O)C1=C(C)NC(SCc2cccc3ccccc23)=C(C#N)C1c1ccco1` (stereo unspecified), which Potency is on record?
**A.** active: 31.6 µM

**Q.** Which Potency does the source give for `CCOC(=O)c1cnn(-c2nc(SC)nc3sc4c(c23)CCC4)c1N` here?
**A.** inconclusive: 17.8 µM [inhibitor, partial curve, poor fit]

**Q.** For `O=C(CNC(=O)Cc1ccccc1)NCc1cccs1`, which Potency is on record?
**A.** inconclusive: 7.94 µM [inhibitor, full curve, poor fit]

**Q.** Which Potency does the source give for `Cc1nc(N=Nc2ccc(S(=O)(=O)O)cc2S(=O)(=O)O)c(COP(=O)(O)O)c(C=O)c1O` here?
**A.** inconclusive: 3.55 µM [inhibitor, single point] and inconclusive: 891 nM [inhibitor, full curve] and inconclusive: 23.8 µM [inhibitor, single point]

**Q.** For `O=C(NC(=S)Nc1cccnc1Cl)c1ccc(F)cc1`, which Potency is on record?
**A.** inconclusive: 89.1 µM [inhibitor, single point]

**Q.** Which Potency does the source give for `Cc1ccc(C(=O)n2cnnc2N)cc1` here?
**A.** inconclusive: 70.8 µM [inhibitor, single point]

**Q.** Which “activity, negative = inhibition” value does the source give for `O=[N+]([O-])c1cc(S(=O)(=O)C(F)(F)F)ccc1NCC1CCCO1` (stereo unspecified) here?
**A.** inactive: 1.08% [at 102 µM]

**Q.** For `CCOC(=O)/C(C#N)=C/c1cc2ccc(C)cc2nc1Cl`, which Potency is on record?
**A.** inconclusive: 35.5 µM [inhibitor, single point]

**Q.** `COc1ccc(C(=O)CSc2nnc(-c3cccs3)n2-c2ccccc2)cc1` was tested. Which Potency did it give?
**A.** inconclusive: 89.1 µM [inhibitor, partial curve, poor fit]

**Q.** For `O=C(NC(Cc1ccc(O)cc1)C(=O)O)c1ccco1` (stereo unspecified), which Potency is on record?
**A.** inconclusive: 79.4 µM [inhibitor, single point]

**Q.** How did the Potency turn out when `COc1cnc(-c2ccccn2)nc1Sc1ccccc1` was run?
**A.** inconclusive: 89.1 µM [inhibitor, single point]

**Q.** For `O=C(CSc1nnc(-c2ccncc2)o1)Nc1ccc(F)c(F)c1`, which Potency is on record?
**A.** inconclusive: 15.8 µM [inhibitor, single point]

**Q.** `O=C(Nc1ccc(S(=O)(=O)N2CCc3ccccc3C2)cc1)c1ccccc1` was tested. Which activity, negative = inhibition did it give?
**A.** inactive: 46.5% [at 12.7 µM]

**Q.** Which Potency does the source give for `O=C(O)c1ncc(-c2ccccc2)cn1` here?
**A.** active: 8.91 µM

**Q.** With `N#Cc1nc(-c2ccc(Cl)cc2)oc1NCCc1ccccn1` as the compound, how does the Potency read?
**A.** inconclusive: 2.82 µM [inhibitor, full curve]

**Q.** Which Potency does the source give for `CCOc1cc(-c2nnc(SCC(=O)NCCCOC)nc2-c2ccc(OC)c(OCC)c2)ccc1OC` here?
**A.** inconclusive: 25.1 µM [inhibitor, single point]

**Q.** How did the Potency turn out when `Fc1ccc(NC(=S)Nc2ccc(F)c(Cl)c2)cc1Cl` was run?
**A.** inconclusive: 11.2 µM [inhibitor, partial curve]

**Q.** For `CC(=O)NC(CC(=O)NC1CCCc2ccccc21)c1ccccc1` (stereo unspecified), which Potency is on record?
**A.** inconclusive: 89.1 µM [inhibitor, single point]

**Q.** How did the Potency turn out when `CC(C)CNS(=O)(=O)c1ccc(CCC(=O)NCc2ccco2)cc1` was run?
**A.** inconclusive: 31.6 µM [inhibitor, single point]

**Q.** Which Potency does the source give for `Cc1cccc(-c2nnc3n2N=C(c2ccc(Br)cc2)CS3)c1` here?
**A.** inconclusive: 39.8 µM [inhibitor, single point]

**Q.** `O=C(Cc1ccc(Cl)cc1)NNC(=O)c1cnccn1` was tested. Which Potency did it give?
**A.** inconclusive: 0.794 µM [inhibitor, full curve, poor fit]

**Q.** For `Cc1nc2ccc(NC(=O)CCS(=O)(=O)c3ccc(Cl)cc3)cc2s1`, which “activity, negative = inhibition” value is on record?
**A.** inactive: 4.18%

**Q.** How did the Potency turn out when `CCCCC[C@H](CC(=O)NO)C(=O)N[C@H](C(=O)N1CCC[C@H]1CO)C(C)C` was run?
**A.** active: 9.47 µM

**Q.** With `COc1cc(/C=C2\N=C3CCCCCN3C2=O)ccc1O` as the compound, how does the Potency read?
**A.** inconclusive: 3.16 µM [inhibitor, partial curve, poor fit]

**Q.** With `CCS(=O)(=O)N1CC(=O)N(c2ccc(C)c(C)c2)C(C)(C(=O)NC2CCCCCC2)C1` (stereo unspecified) as the compound, how does the “activity, negative = inhibition” value read?
**A.** inactive: 1.45%

**Q.** With `CCCCNS(=O)(=O)c1ccc2nc(-c3cccnc3)cc(C(=O)NCCCOCC)c2c1` as the compound, how does the Potency read?
**A.** inactive

**Q.** How did the Potency turn out when `NS(=O)(=O)c1ccc(NC(=O)COC(=O)c2cnccn2)cc1` was run?
**A.** inconclusive: 79.4 µM [inhibitor, single point]

**Q.** `Cc1ccc(-c2nc(CNC(=O)c3ccco3)cs2)cc1` was tested. Which Potency did it give?
**A.** active: 50.1 µM

**Q.** `CCOc1cc(CNCCO)ccc1OCC(=O)NC(C)(C)C` was tested. Which “activity, negative = inhibition” value did it give?
**A.** inactive: 17.1%

**Q.** With `COc1ccc(NC(C)=O)cc1NC(C)C(=O)Nc1ccccc1F` (stereo unspecified) as the compound, how does the Potency read?
**A.** inconclusive: 20 µM [inhibitor, single point]

**Q.** With `O=C(O)c1cccc(Nc2ccnc(Nc3cccc(C(=O)O)c3)n2)c1` as the compound, how does the Potency read?
**A.** inconclusive: 79.4 µM [inhibitor, single point]

**Q.** Which Potency does the source give for `CCCCC(c1nnnn1CCOC)N1CCN(c2cccc(OC)c2)CC1` (stereo unspecified) here?
**A.** active: 44.7 µM

**Q.** For `O=C(COC(=O)c1cc(-c2cccs2)nn1-c1ccccc1)Nc1ccc(Cl)c([N+](=O)[O-])c1`, which Potency is on record?
**A.** active: 39.8 µM

**Q.** How did the Potency turn out when `CCc1cc2c(NCC3CCCO3)ncnc2s1` (stereo unspecified) was run?
**A.** inconclusive: 39.8 µM [inhibitor, single point]

**Q.** How did the Potency turn out when `CCN(CC)C(=O)CSc1nnc(COc2ccccc2)n1CC` was run?
**A.** inconclusive: 89.1 µM [inhibitor, single point]

**Q.** With `N#C/C(=C/c1ccc(F)cc1)C(N)=S` as the compound, how does the Potency read?
**A.** active: 5.62 µM

**Q.** How did the Potency turn out when `COc1cccc(S(=O)(=O)NCc2ccc(C(=O)NCc3ccco3)cc2)c1` was run?
**A.** active: 44.7 µM

**Q.** With `CN1CCN(c2ccc(Cl)cc2NC(=O)CCN2C(=O)c3ccccc3C2=O)CC1` as the compound, how does the Potency read?
**A.** inconclusive: 39.8 µM [inhibitor, single point]

**Q.** For `COc1ccc(-c2nc3ccccn3c2/N=C/c2ccc(OC)c(OC)c2)cc1O`, which Potency is on record?
**A.** inconclusive: 22.4 µM [inhibitor, single point]

**Q.** For `Cc1ccccc1C(=O)c1c[nH]c(C(=O)N=CN(C)C)c1`, which “activity, negative = inhibition” value is on record?
**A.** inactive: 0.781% [at 102 µM]

**Q.** How did the Potency turn out when `O=C(COc1ccc(S(=O)(=O)NC2CCCCC2)cc1)NC1CCCCC1` was run?
**A.** inconclusive: 22.4 µM [inhibitor, partial curve, poor fit]

**Q.** How did the activity, negative = inhibition turn out when `COc1ccc(N2CCN(C(C)=C3C(=O)c4ccccc4C3=O)CC2)cc1` was run?
**A.** inconclusive: -93.3% [inhibitor]

**Q.** For `CN(CCNC(=O)CN1C(=O)CSc2ccc(S(=O)(=O)N3CCCC3)cc21)Cc1ccccc1`, which Potency is on record?
**A.** inconclusive: 79.4 µM [inhibitor, partial curve, poor fit]

**Q.** `Cc1ccccc1S(=O)(=O)Cc1ccc(C(=O)N2CC(C)CC(C)C2)o1` (stereo unspecified) was tested. Which Potency did it give?
**A.** inconclusive: 79.4 µM [inhibitor, single point]

**Q.** Which Potency does the source give for `CN(C)C(=O)N=NC(=O)N(C)C` here?
**A.** active: 2.24 µM

**Q.** With `CC(C)=CCCC1(C)C=Cc2c(c(C)cc3c2[nH]c2cc(O)ccc23)O1` (stereo unspecified) as the compound, how does the activity, negative = inhibition read?
**A.** inconclusive: -72.9% [inhibitor]

**Q.** Which Potency does the source give for `CC(C)(C)C(=O)c1no[n+]([O-])c1/C(=N/O)C(C)(C)C` here?
**A.** inconclusive: 3.55 µM [inhibitor, single point]

**Q.** `O=C(COc1coc(CN2CCc3ccccc3C2)cc1=O)Nc1ccc([N+](=O)[O-])cc1` was tested. Which Potency did it give?
**A.** inconclusive: 89.1 µM [inhibitor, partial curve, poor fit]
